The supplement of paper PMC11876631
± gives the standard deviation of the averaged measurements. Laboratory Escherichia coli strains with one amino-acid change in an essential protein, pooled on minimal glucose agar with carbenicillin or gentamicin at twice the control MIC (plus kanamycin and chloramphenicol for the plasmids), 48 h. Fold change of barcode share against drug-free plates; higher = less susceptible. Active = above 20 in both replicates (the paper's putatively resistant). '<' = one read or none on drug, '>' = one read or none on a drug-free plate. Shares are relative, so most strains fall below 1 when a few take over. Listed are strains with at least 15 reads on both drug-free plates, and hits; most hits rest on fewer reference reads. Replicate rank correlation about 0.5. Edits are read from barcodes.

Molecular target: Escherichia coli (laboratory strain)
Experiment: barcode share on antibiotic plates over drug-free plates; higher = less susceptible
Method: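 A pool of E. coli strains, each edited to carry one amino-acid change in an essential protein, was grown for 48 h on minimal glucose agar with or without antibiotic; strain barcodes were sequenced; mean of two replicates.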

[1] = antibiotic: carbenicillin, 2× MIC (3.1 µg/mL)
[2] = antibiotic: gentamicin, 2× MIC (MIC 0.45 µg/mL)

Protein | fold change of barcode share [1] | fold change of barcode share [2]
def I131A (protein) MSVLQVLHIPDERLRKVAKPVEEVNAEIQRIVDDMFETMYAEEGIGLAATQVDIHQRIIVIDVSENRDERLVLINPELLEKSGETGIEEGCLSIPEQRALVPRAEKVKIRALDRDGKPFELEADGLLAICAQHEMDHLVGKLFMDYLSPLKQQRIRQKVEKLDRLKARA | 0.276 ± 0.055 | 0.0142 ± 0.0022
dapE M365A (protein) MSCPVIELTQQLIRRPSLSPDDAGCQALLIERLQAIGFTVERMDFADTQNFWAWRGQGETLAFAGHTDVVPPGDADRWINPPFEPTIRDGMLFGRGAADMKGSLAAMVVAAERFVAQHPNHTGRLAFLITSDEEASAHNGTVKVVEALMARNERLDYCLVGEPSSIEVVGDVVKNGRRGSLTCNLTIHGVQGHVAYPHLADNPVHRAAPFLNELVAIEWDQGNEFFPATSMQIANIQAGTGSNNVIPGELFVQFNFRFSTELTDEMIKAQVLALLEKHQLRYTVDWWLSGQPFLTARGKLVDAVVNAVEHYNEIKPQLLTTGGTSDGRFIARMGAQVVELGPVNATIHKINECVNAADLQLLARAYQRIMEQLVA | 0.181 ± 0.14 | < 0.0101
dapE M365W (protein) MSCPVIELTQQLIRRPSLSPDDAGCQALLIERLQAIGFTVERMDFADTQNFWAWRGQGETLAFAGHTDVVPPGDADRWINPPFEPTIRDGMLFGRGAADMKGSLAAMVVAAERFVAQHPNHTGRLAFLITSDEEASAHNGTVKVVEALMARNERLDYCLVGEPSSIEVVGDVVKNGRRGSLTCNLTIHGVQGHVAYPHLADNPVHRAAPFLNELVAIEWDQGNEFFPATSMQIANIQAGTGSNNVIPGELFVQFNFRFSTELTDEMIKAQVLALLEKHQLRYTVDWWLSGQPFLTARGKLVDAVVNAVEHYNEIKPQLLTTGGTSDGRFIARMGAQVVELGPVNATIHKINECVNAADLQLLARWYQRIMEQLVA | 0.213 ± 0.11 | < 0.00699
dapE L159A (protein) MSCPVIELTQQLIRRPSLSPDDAGCQALLIERLQAIGFTVERMDFADTQNFWAWRGQGETLAFAGHTDVVPPGDADRWINPPFEPTIRDGMLFGRGAADMKGSLAAMVVAAERFVAQHPNHTGRLAFLITSDEEASAHNGTVKVVEALMARNERLDYCAVGEPSSIEVVGDVVKNGRRGSLTCNLTIHGVQGHVAYPHLADNPVHRAAPFLNELVAIEWDQGNEFFPATSMQIANIQAGTGSNNVIPGELFVQFNFRFSTELTDEMIKAQVLALLEKHQLRYTVDWWLSGQPFLTARGKLVDAVVNAVEHYNEIKPQLLTTGGTSDGRFIARMGAQVVELGPVNATIHKINECVNAADLQLLARMYQRIMEQLVA | 0.398 ± 0.2 | –
dapE L92Q (protein) MSCPVIELTQQLIRRPSLSPDDAGCQALLIERLQAIGFTVERMDFADTQNFWAWRGQGETLAFAGHTDVVPPGDADRWINPPFEPTIRDGMQFGRGAADMKGSLAAMVVAAERFVAQHPNHTGRLAFLITSDEEASAHNGTVKVVEALMARNERLDYCLVGEPSSIEVVGDVVKNGRRGSLTCNLTIHGVQGHVAYPHLADNPVHRAAPFLNELVAIEWDQGNEFFPATSMQIANIQAGTGSNNVIPGELFVQFNFRFSTELTDEMIKAQVLALLEKHQLRYTVDWWLSGQPFLTARGKLVDAVVNAVEHYNEIKPQLLTTGGTSDGRFIARMGAQVVELGPVNATIHKINECVNAADLQLLARMYQRIMEQLVA | 1.12 ± 0.93 | –
dapE M365Q (protein) MSCPVIELTQQLIRRPSLSPDDAGCQALLIERLQAIGFTVERMDFADTQNFWAWRGQGETLAFAGHTDVVPPGDADRWINPPFEPTIRDGMLFGRGAADMKGSLAAMVVAAERFVAQHPNHTGRLAFLITSDEEASAHNGTVKVVEALMARNERLDYCLVGEPSSIEVVGDVVKNGRRGSLTCNLTIHGVQGHVAYPHLADNPVHRAAPFLNELVAIEWDQGNEFFPATSMQIANIQAGTGSNNVIPGELFVQFNFRFSTELTDEMIKAQVLALLEKHQLRYTVDWWLSGQPFLTARGKLVDAVVNAVEHYNEIKPQLLTTGGTSDGRFIARMGAQVVELGPVNATIHKINECVNAADLQLLARQYQRIMEQLVA | 0.197 ± 0.022 | < 0.00453
dapE L92A (protein) MSCPVIELTQQLIRRPSLSPDDAGCQALLIERLQAIGFTVERMDFADTQNFWAWRGQGETLAFAGHTDVVPPGDADRWINPPFEPTIRDGMAFGRGAADMKGSLAAMVVAAERFVAQHPNHTGRLAFLITSDEEASAHNGTVKVVEALMARNERLDYCLVGEPSSIEVVGDVVKNGRRGSLTCNLTIHGVQGHVAYPHLADNPVHRAAPFLNELVAIEWDQGNEFFPATSMQIANIQAGTGSNNVIPGELFVQFNFRFSTELTDEMIKAQVLALLEKHQLRYTVDWWLSGQPFLTARGKLVDAVVNAVEHYNEIKPQLLTTGGTSDGRFIARMGAQVVELGPVNATIHKINECVNAADLQLLARMYQRIMEQLVA | 0.561 ± 0.38 | < 0.012
